Laboratory results: the RNAGym collection of RNA variant scans (doi:10.7554/elife.90254)
The source gives no read counts; variants with many changes may rest on few reads.

B1: LINE1-mini (parent)
chain: GGCAGAGCUCAACACAGCGUGGCAAAGUGGCUGUGGCUAGACUGCC

Variants of: B1
Experiment: self-cleavage, relative activity (ratio to wild type); higher = more cleavage; in vitro, sequencing; the parent is a self-cleaving ribozyme
Work on G5A A6U U43A yielded a self-cleavage of 0.02.
Variant A6G C10A G30A G35U A39G C42G has a self-cleavage of 0.1.
C18U G44U C46U showed a self-cleavage of 0.02.
With C3G A6G C13U U20G A26C the self-cleavage was 0.07.
Work on G19A A25G A26G yielded a self-cleavage of 0.16.
In the case of A4C C10G G22A, the self-cleavage is reported as 0.03.
Variant C13U A24G U28G C46A has a self-cleavage of 0.17.
For C15U A24C G29U, the self-cleavage was 0.56.
For G1U A4U A11G G21A, the self-cleavage was 0.02.
For G7A A14G G29A, the self-cleavage was 0.19.
G7C C15G C45U showed a self-cleavage of 0.09.
With A6G A24G A25G A39G the self-cleavage was 0.01.
Work on C8U C10G A16G G33U yielded a self-cleavage of 0.01.
Variant U9C C13U G29U has a self-cleavage of 0.05.
Work on G7U C15U G21A U38A C46U yielded a self-cleavage of 0.03.
C10A A14C C31G gave a self-cleavage of 0.
In the case of G19C C23A G27C, the self-cleavage is reported as 0.48.
With C10U C18G A25G U43A the self-cleavage was 0.02.
U32C G35C G40A showed a self-cleavage of 0.16.
In the case of G5U A11C A14C C15A G29U, the self-cleavage is reported as 0.02.
In the case of C15A G29C U34C, the self-cleavage is reported as 0.02.
Variant C3U A11U C45A C46G has a self-cleavage of 0.
G36A U38G C42U showed a self-cleavage of 0.01.
Work on U20G G29C G35U C42G yielded a self-cleavage of 0.02.
For C8A C10A U43A, the self-cleavage was 0.04.
In the case of G17A A24U G27U C45A, the self-cleavage is reported as 0.04.
For A6U U9A C23U, the self-cleavage was 0.2.
In the case of G7U A16U A24C, the self-cleavage is reported as 0.08.
Variant C37A G40C C46A has a self-cleavage of 0.28.
G36U C45U C46A showed a self-cleavage of 0.04.
In the case of G1U G2A G30C U34G, the self-cleavage is reported as 0.01.
U28A G30C A41C gave a self-cleavage of 0.12.
G7C U28A G30C C37G showed a self-cleavage of 0.01.
Variant C18A U20A U28A C31G has a self-cleavage of 0.07.
G1C A4C A25G U38G gave a self-cleavage of 0.01.
With G1A C10A C13G the self-cleavage was 0.04.
Variant G5U U9G A14G C42A has a self-cleavage of 0.06.
A16C G17U G29U C46G showed a self-cleavage of 0.04.
With G30U C31U A39G the self-cleavage was 0.08.
In the case of G1A C8A A11C A25G G27U G30C, the self-cleavage is reported as 0.02.
G7A G21U A25C gave a self-cleavage of 0.06.
With C18G C37G U43A the self-cleavage was 0.02.
Work on G5A C10G G19A C23A G44A yielded a self-cleavage of 0.01.
For A12C G17A A26C U28C G35C C37A, the self-cleavage was 0.02.
For A16U A26C G35U G36C, the self-cleavage was 0.05.
With G2C U20A A25G G27A G36U the self-cleavage was 0.31.
Variant G1U G5A A26G has a self-cleavage of 0.05.
Variant C8G C13U G19A U28A has a self-cleavage of 0.07.
For C10A A16C G21U U32A U43A, the self-cleavage was 0.01.
G5A U9C G19C G36A A39G gave a self-cleavage of 0.01.
C15A G21A A26U G27U gave a self-cleavage of 0.09.
In the case of G19C A24U A26C, the self-cleavage is reported as 1.54.
A6C U9C G27C gave a self-cleavage of 0.02.
In the case of U20C G30C C42G, the self-cleavage is reported as 0.01.
Work on G2C U9G A25U U32C yielded a self-cleavage of 0.01.
With G7C A14G G27C G29U G33A the self-cleavage was 0.02.
Work on G1U A12U G30C G35U G36U yielded a self-cleavage of 0.02.
In the case of G27U C31U C37A A39G, the self-cleavage is reported as 0.04.
Work on G5U C10G G27C yielded a self-cleavage of 0.02.
For A25G G33C U34C C46U, the self-cleavage was 0.03.
Work on A6U G7A C15G G17A C31A yielded a self-cleavage of 0.06.
With G2C A12U U20A the self-cleavage was 0.06.
Work on A16C C23A G35U yielded a self-cleavage of 0.06.
In the case of A14C A16C G21U, the self-cleavage is reported as 0.
With A12G C18G U43C the self-cleavage was 0.02.
With G1A C3A A6U G35C the self-cleavage was 0.57.
Work on G5A G7C C15U yielded a self-cleavage of 0.38.
With C8G U20A A25G A41G the self-cleavage was 0.07.
Variant G22U G27C U28G has a self-cleavage of 0.9.
In the case of C3G C8A C31U, the self-cleavage is reported as 0.48.
G7C A16C G19U G21U U38A showed a self-cleavage of 0.04.
For C13A G21A A39G G44U, the self-cleavage was 0.06.
With A6G U9A C13U C18G G30C G40U A41G the self-cleavage was 0.07.
Variant A14C U32G U38A G44U has a self-cleavage of 0.03.
G7U G30A G40U gave a self-cleavage of 0.29.
Variant A4C A39C C45G has a self-cleavage of 0.58.
In the case of C10A A11U C15G G19C, the self-cleavage is reported as 0.01.
For G7C U9A A39G, the self-cleavage was 0.
Variant G35C C42G C46G has a self-cleavage of 0.06.
Work on G2A U9G G22U U34G yielded a self-cleavage of 0.15.
G33C G35C C37A gave a self-cleavage of 0.01.
G1A C3A A12C G19A C37A C46U showed a self-cleavage of 0.09.
C3G C8G G30U showed a self-cleavage of 2.81.
